Data as given in PubChem BioAssay AID686979 (National Center for Advancing Translational Sciences (NCATS), 2013).
Out of some 420,000 compounds screened, about 50,000 (12%) were called active. This list was built around the results that the source calls inconclusive (neither active nor inactive); the mix of calls is not that of the screen. Calls come from the whole dose curve; as a rule, active = well fitted inhibition curve with a large enough effect; inconclusive = small, poorly fitted or top-dose-only effect; inactive = flat fitted curve, though single readings scatter. No potency is given beside an inconclusive call; the fits are too rough.

Assay: qHTS for Inhibitors of human tyrosyl-DNA phosphodiesterase 1 (TDP1): qHTS in cells in presence of CPT; note: nearly all actives have a fitted effect of over 55% in size
Conditions: chicken DT40 Tdp1-/-;hTDP1 cells + 20 nM CPT, ATP luminescence, 48 h; activity change, negative = growth inhibition: at 46.2 µM (top of the series) unless noted
Method in brief: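 Cell growth measured by CellTiter-Glo luminescence after a minimum 48 h, 37 C compound exposure with 20 nM CPT in Tdp1-knockout DT40 cells stably expressing hTDP1, seeded 400/well; qHTS titration format.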
% is set by controls: 0 for no effect and ±100 for the full control effect; potency is the fitted concentration of half-maximal effect; tags give direction and shape of the fitted curve.

| SMILES | Potency | activity change, negative = growth inhibition |
| --- | --- | --- |
| CCOC(=O)c1sc(NC(=O)CN2CCN(c3ccccc3)CC2)nc1C | inactive |  |
| O=C(O)CC(NC(=O)Cc1ccccc1)c1ccccc1 (stereo not drawn) | inactive |  |
| COc1cccc(/C=C2\Oc3cc(OCC(=O)N4CCCC4)ccc3C2=O)c1OC | inconclusive [inhibitor, single point] |  |
| CCCOC(=O)c1ccc(Nc2cc(C)nc3ncnn23)cc1 | inconclusive [inhibitor, single point] |  |
| COc1ccc(OCC(=O)N/N=C/C(C)=C/c2ccco2)c(Br)c1 | inconclusive [inhibitor, single point] |  |
| CS(=O)(=O)N(CC(=O)Nc1cc(Cl)ccc1Cl)c1ccccc1 | inconclusive [inhibitor, single point] |  |
| COc1ccc(CNC(=O)CN2CCC(C(=O)c3ccc(OC)cc3)CC2)cc1 | inconclusive [inhibitor, partial curve, poor fit] |  |
| CCN1CCN(C(=O)/C=C/c2ccc(C)cc2)CC1 | inactive |  |
| CC1CCN(C(c2cccs2)c2nnnn2Cc2ccccc2)CC1 (stereo not drawn) | inconclusive [inhibitor, single point] |  |
| COc1cc(CNc2ccc(C)c(C)c2)cc(OC)c1OC | active: 2.06 µM |  |
| CCc1cc2c(cc3c(=O)n(CC(=O)NCCCN4CCCCCC4)nc(CC)n32)s1 | inconclusive [inhibitor, single point] |  |
| CC(=O)c1cccc(NC(=O)CN(C)Cc2ccc(OC(F)F)cc2)c1 | inconclusive [inhibitor, single point] |  |
| O=C(Cc1cccs1)NC1(C(=O)NC2CCCC2)CCCCC1 | inconclusive [inhibitor, single point] |  |
| COc1ccc(C(=O)OCCN2CCCCC2)cc1 | inactive |  |
| CCN(CC)c1ccc(-c2nc(-c3ccccn3)no2)cc1[N+](=O)[O-] | inactive |  |
| S=C(NCC1CCCO1)N1CCN(c2cccc(Cl)c2)CC1 (stereo not drawn) | inconclusive [inhibitor, single point] |  |
| CN1c2ccccc2-c2nc(SCC(=O)Nc3ccccc3)ncc2S1(=O)=O | inconclusive [inhibitor, single point] |  |
| O=C(CN1CCCC1c1cccs1)Nc1cccc(S(=O)(=O)N2CCCC2)c1 (stereo not drawn) | active: 14.6 µM |  |
| CCC1(c2ccccc2)NC(=O)N(CC(=O)Nc2ccc(S(=O)(=O)N3CC(C)CC(C)C3)cc2)C1=O (stereo not drawn) | inconclusive [inhibitor, single point] |  |
| Cc1ccc(C)c(NC(=O)CN(Cc2ccccc2)S(=O)(=O)c2ccc3nc(C)sc3c2)c1 | inconclusive [inhibitor, single point] |  |
| Cc1ccc(NS(=O)(=O)c2cc3c4c(c2)CC(=O)N4CCC3)cc1C | active: 13 µM |  |
| COc1ccc(S(=O)(=O)N2CCN(C(=O)C3CC3)CC2)cc1Br | inactive |  |

| SMILES | Potency | activity change, negative = growth inhibition |
| --- | --- | --- |
| Cc1ccc(N=Cc2c(O)n(-c3ccc4c(c3)OCO4)c(=O)c3ccccc23)cc1 | inconclusive [inhibitor, single point] |  |
| Cc1onc(-c2ccccc2Cl)c1C(=O)NNC(=O)c1ccccc1F | inactive |  |
| O=C(NC(=S)Nc1ccc(S(=O)(=O)N2CCCCC2)cc1)c1cccs1 | active: 25.9 µM |  |
| CCN(CCCNC(=O)c1ccc(Sc2ccc(Cl)cc2)c(NC(C)=O)c1)c1cccc(C)c1 | inconclusive [inhibitor, single point] |  |
| CCc1nn(CCCC(=O)NCc2ccc(OC)c(OC)c2)c(=O)c2cc3occc3n12 | inconclusive [inhibitor, single point] |  |
| NC(=O)c1ccccc1NC(=O)CSc1nc2c(c(=O)[nH]1)CCCC2 | inconclusive [inhibitor, single point] |  |
| COc1ccc(/C=C/C(=O)NC(=S)NNC(=O)c2cc(OC)c(OC)c(OC)c2)cc1 | inconclusive [inhibitor, single point] |  |
| O=C(CCl)N=c1sccn1Cc1cccc2ccccc12 | active: 4.61 µM |  |
| Cc1cc(Br)ccc1NC(=O)c1sc2ncn(Cc3ccccc3Cl)c(=O)c2c1C | inconclusive [inhibitor, single point] |  |
| COc1ccccc1CNC(=O)c1cc(-c2ccccc2C)nn1CC1CC(c2cccnc2)=NO1 (stereo not drawn) | inconclusive [inhibitor, single point] |  |
| Cc1ccc(-n2ncc3c(NCc4ccccc4)ncnc32)cc1C | inconclusive [inhibitor, partial curve, poor fit] |  |
| Cc1ccc(S(=O)(=O)N2[C@@H](c3ccc(Cl)cc3)C(C(=O)OC(C)(C)C)=CC[C@H]2c2ccc(Cl)c(Cl)c2)cc1 | inconclusive [inhibitor, partial curve] |  |
| CCN(CC)S(=O)(=O)c1ccc(Oc2ccccc2OC)cc1 | active: 18.4 µM |  |
| COc1ccc(CCNC(=O)c2ccc(Cl)cc2Cl)cc1 |  | inconclusive: -32.4% [inhibitor] |
| Cc1ccc(N(CC(=O)NCc2ccc(F)cc2)C(=O)CCC(=O)Nc2ccccn2)cc1C | inconclusive [inhibitor, single point] |  |
| Cc1ccc(C(=O)C2CCN(S(=O)(=O)c3ccccc3C(=O)O)CC2)cc1 | inactive |  |
| Cc1nnc2n1N=C(c1ccc3c(c1)NC(=O)CO3)CS2 | inconclusive [inhibitor, full curve, poor fit] |  |
| CC(=O)Nc1cccc(NC(=O)COc2ccc3c(c2)CCC3)c1 | inconclusive [inhibitor, partial curve] |  |
| O=C(CSc1oc(-c2ccco2)nc1S(=O)(=O)c1ccc(Br)cc1)c1ccc(Cl)cc1 | inconclusive [inhibitor, single point] |  |
| CCOC(=O)CCCCCC(=O)Nc1ccc2c(c1)C(=O)N([C@H](C)CO)C[C@@H](C)[C@@H](CN(C)C(=O)CCC(F)(F)F)OCCCC[C@H](C)O2 | inconclusive [inhibitor, partial curve, poor fit] |  |
| Cc1cccc(CN2CCN(Cc3nc4c(s3)CCCC4)CC2CCO)n1 (stereo not drawn) | inactive |  |
